Data taken from the supplement of paper PMC8728848.
The list shows a part of the results.

Assays:
Assay in all cases: glycan array binding signal (z-score within array); higher = stronger binding
Details in all cases: glycan notation: IUPAC condensed, linker removed
[1] = biological target: Gal(b1-4)GlcNAc(b1-6)Gal(b1-4)GlcNAc
Procedure, shortened: (§1)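 Negative Z-scores can be read as non-binding. The Z-score is calculated within each array and then averaged across arrays of one protein sequence at different concentrations or buffers and across linkers. Arrays, 3228 in all, were curated from the Consortium for Functional Glycomics database and kept only where the protein sequence was available.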

[2] = biological target: Gal(b1-4)GlcNAc(b1-6)GalNAc
Procedure, shortened: as §1

[3] = biological target: Gal(b1-4)GlcNAc(b1-6)[Gal(b1-3)]GalNAc
Procedure, shortened: as §1

[4] = biological target: Gal(b1-4)GlcNAc(b1-6)[Gal(b1-4)GlcNAc(b1-3)]GalNAc
Procedure, shortened: as §1

[5] = biological target: Gal(b1-4)GlcNAc6P
Procedure, shortened: as §1

[6] = biological target: Gal(b1-6)Gal
Procedure, shortened: as §1

[7] = biological target: Gal3S(b1-3)GalNAc
Procedure, shortened: as §1

[8] = biological target: Gal3S(b1-3)GlcNAc
Procedure, shortened: as §1

[9] = biological target: Gal3S(b1-3)[Fuc(a1-4)]GlcNAc
Procedure, shortened: as §1

[10] = biological target: Gal3S(b1-4)Glc
Procedure, shortened: as §1

[11] = biological target: Gal3S(b1-4)Glc6S
Procedure, shortened: as §1

[12] = biological target: Gal3S(b1-4)GlcNAc
Procedure, shortened: as §1

[13] = biological target: Gal3S(b1-4)[Fuc(a1-3)]Glc6S
Procedure, shortened: as §1

[14] = biological target: Gal3S(b1-4)[Fuc(a1-3)]GlcNAc
Procedure, shortened: as §1

[15] = biological target: Gal3S(b1-4)[Fuc(a1-3)]GlcNAc6S
Procedure, shortened: as §1

[16] = biological target: Gal3S4S(b1-4)GlcNAc
Procedure, shortened: as §1

[17] = biological target: Gal3S6S(b1-4)GlcNAc
Procedure, shortened: as §1

[18] = biological target: Gal3S6S(b1-4)GlcNAc6S
Procedure, shortened: as §1

[19] = biological target: Gal4S(b1-4)GlcNAc
Procedure, shortened: as §1

[20] = biological target: Gal4S6S(b1-4)GlcNAc
Procedure, shortened: as §1

[21] = biological target: Gal6P(b1-4)GlcNAc
Procedure, shortened: as §1

[22] = biological target: Gal6S(b1-3)GlcNAc
Procedure, shortened: as §1

[23] = biological target: Gal6S(b1-3)GlcNAc6S
Procedure, shortened: as §1

B1: InvD YPIII (Yersinia pseudotuberculosis), B1JSC0 (protein)
chain: MIKYFSFFKKPEPIVGILPNRQSHHILPTHIRRVAWGTLLLQLFIPLSVSFSPAIAAMKASKADTMVSYSSTEPYVLGSGETVAMVAKKYGITVDELKKINIYRTFSRPFTALTTGDEIDIPRKASPFSVDNNKDNRLSVENTLAGHAVAGATALSNGDVAKSGERMVRSAASNEFNNSAQQWLSQFGTARVQLNINDDFHLDGSAADVLIPLYDNEKSILFTQLGARNKDSRNTVNMGAGVRTFQGNWMYGANTFFDNDLTGKNRRIGVGAEAWTDYLKLSANNYFGITDWHQSRDFIDYNERPANGYDLRAEAYLPSYPQLGGKAMYEKYRGDDVALFGKDNRQKNPHAITAGVNYTPIPLVTIGAEHRAGKGGQNDSNINFQLNYRLGETWQSHIDPSAVAASRTLAGSRYDLVERNNHIVLDYQKQNLVRLSLPDSLAGDPFSQLSVTAQVTATHGLERIDWQSAELMAAGGVLKQTSKNGLEITLPEYQMNRTGGNSYILNAIAYDTQGNASSQASMLITVNAQKINIANSTLVAVPINIEANNSDTSVVTLTLKDDNNIPVTGQDVTFLSPLGTLSAMTDSGNGVYTATLTAGTVSGTTAVSSNINGSALDMTPATVTLNGNSGELSITHSMLVAAPVNIEANGSDTSVVTLTLRDSNNNPVTGQTVTFAGTLGTLGAVTEGSSGVYTATLTAGIMVGTSSITASVNSTALGVTPATVTLNGDSGNLSTTNSTLVAAPVNIEANSSDTSVVTLTLRDNNNNPVTGQTVVFTSTLGTLGNVTEQASGVYTATLTAGTVSGVASLSVSVGGNALGVTPATVTLNGDSGNLSTTNSTLVAAPVNIEANSSDTSVVTLTLRDNNNNPVTGQTVNFAGTLGTLGTVSEGSSGVYTTTLTAGTVAGVASLSVNVGGNALGVTPATVTLNGNSGNLSATNSTLVAAPVNIEANSSDTSVVTLTLRDNNNNPVTGQTVAFTSTLGTLGNVTEQASGVYTATLTAGTVSGVASLSVSVNSNALGVTPATVTLNGDSGNLSTTNSTLVAAPVNIEANSSDTSVVTLTLRDNNNNPVTGQTVAFTSTLGTLGNVTEQASGLYTATLTAGTVSGVASLSVNVGGNALGVTPATVTLNGDSGNLSATNSTLVAAPVNIEANSSDTSVVTLTLRDNNNNPVTGQTVAFTSTLGTLGNVTEQASGLYTATLTAGTVSGVASLSVNVGGTALGVTPATVTLNGDSGNLSTTNSTLVAAPVNIEANSSDTSVVTLTLRDNNNNPVTGQTVAFTSTLGTLGNVTEQASGLYTATLTAGTVSGVASLSVSVNSTALGVTPATVTLNGDSGNLSTTNSTLVAAPVNIEANSSDTSVVTLTLRDNNNNPVTGQTVAFTSTLGTLGNVTEQASGVYTATLTAGTVAGVASLSVNVGGNALGVTPATVTLNGDSGNLSTTNSTLVAAPVNIEANSSDTSVVTLTLRDNNNNPVTGQTVAFTSTLGTLGNVTEQASGVYTATLTAGTVSGVASLSVSVGSSALGVTPATVTLNGDSGNLSTTNSTLVAAPVNIEANNSDTSVVTLTLRDNNNNPVTGQTVAFTSTLGTLGNVTEQASGVYTATLTAGTVSGVASLSVSVNSNALGVTPATVTLNGDSGNLSTTNSTLVAAPVNIEANSSDTSVVTLTLRDNNNNPVTGQTVVFTSTLGTLGNVTEQASGLYTATLTAGTVSGVASLSVSVGGNALGVTGNITLAPGALDAARSILAVNKPSINADDRIGSTITFTAQDAQGNAITGLDIAFMTDLENSQIMTLVDHNDGTYTANINGTQTGIANIAVQSSGATIAGLAATMVTITPGAWNTTQATPVMTVALPITTCQSSSGVYKRYYIGIVTHELYDNYGNEISGILTYNLGAGRYTTVTSQNSSVSGSNGLTRRSNSPVSHFILTSDAYTSQAACYAERIANVNVTITVTAITDDFKTSAVNKVFILGTGSN
B1 was tested, and the “glycan array binding signal (z-score)” value [1] was -0.031, the “glycan array binding signal (z-score)” value [2] was -0.087 and the “glycan array binding signal (z-score)” value [3] was -0.231. The “glycan array binding signal (z-score)” value [4] was -0.222, the “glycan array binding signal (z-score)” value [5] was -0.305 and the “glycan array binding signal (z-score)” value [6] was -0.134. The “glycan array binding signal (z-score)” value [7] was -0.322, the “glycan array binding signal (z-score)” value [8] was -0.26 and the “glycan array binding signal (z-score)” value [9] was -0.381. For the same binder, the “glycan array binding signal (z-score)” value [10] was -0.329, the “glycan array binding signal (z-score)” value [11] was -0.169 and the “glycan array binding signal (z-score)” value [12] was -0.195. The “glycan array binding signal (z-score)” value [13] was -0.047, the “glycan array binding signal (z-score)” value [14] was -0.412 and the “glycan array binding signal (z-score)” value [15] was 0.06. The “glycan array binding signal (z-score)” value [16] was -0.009, the “glycan array binding signal (z-score)” value [17] was 0.187 and the “glycan array binding signal (z-score)” value [18] was -0.084. The “glycan array binding signal (z-score)” value [19] was 0.329, the “glycan array binding signal (z-score)” value [20] was -0.133 and the “glycan array binding signal (z-score)” value [21] was -0.37. For the same binder, the “glycan array binding signal (z-score)” value [22] was -0.189 and the “glycan array binding signal (z-score)” value [23] was -0.046.
